# Results reported in PubChem BioAssay AID1347417 (National Center for Advancing Translational Sciences (NCATS), 2020).
# About 5,300 (4.4%) of roughly 120,000 compounds were called active. Inconclusive means that the source gave no clear call. Such entries were picked first, then a sample of the others. Calls come from the whole dose curve; as a rule, active = well fitted inhibition curve with a large enough effect; inconclusive = small, poorly fitted or top-dose-only effect; inactive = no such curve, though single readings can be large or run the other way. Potencies beside an inconclusive call are fits to weak or partial responses and may not hold up.
# Assay: qHTS Primary assay for Inhibitors of Plasmodium falciparum Dd2 growth in vitro; note: nearly all actives have a fitted effect of over 65% in size;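 for activity, negative = inhibition: plate controls were DMSO vehicle for no effect and reference drug for full effect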
# Settings: P. falciparum Dd2 growth, SYBR Green, 72 h; activity, negative = inhibition: at 28.9 µM (top of the series) unless noted; series mostly up to 28.9 µM
# Summary of the method: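 Infected erythrocytes (Dd2, 0.3% parasitemia, 2.5% hematocrit final) are added to compound in RPMI-1640/Albumax II medium, grown 72 h at 37C in low oxygen, then lysed with saponin/Triton-X containing SYBR Green and read by fluorescence.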
# Potency is the fitted concentration of half-maximal effect; tags give direction and shape of the fitted curve.
Structure (SMILES),Potency,"activity, negative = inhibition",outcome
Cc1nc(N2CCCCC2)n(CC(=O)Nc2cccc(Cl)c2)c(=O)c1C,"inconclusive: 2.82 µM [inhibitor, full curve, poor fit]",,
CCCn1c(C)cnc1C1CCNC1 (centres undefined),,inactive: 3.04%,
O=C(CCC1CCCC1)N1CCC(c2noc(COc3ccc(F)cc3)n2)C1 (centres undefined),"inconclusive: 14.1 µM [inhibitor, single point]",,
COc1cc2ncc3c(-c4ccccc4)nn(-c4ccc(C)cc4)c3c2cc1OC,"inconclusive: 17.8 µM [inhibitor, single point]",,
COc1ccc(CCN(CC2CCN(C)CC2)C(=O)C2CC23CCC3)cc1 (centres undefined),"inconclusive: 17.8 µM [inhibitor, single point]",,
O=C(c1ccccc1)N1CCCC(N2CCN(c3cccc(C(F)(F)F)c3)CC2)C1 (centres undefined),,inactive: -16.7%,
COc1ccc(CCC(=O)NCC2Cn3cccc3C(=O)N2C)cc1 (centres undefined),,inactive: 18.8%,
COc1ccc(N2CCN(C(=O)c3nn(-c4ccc(C)cc4)c(=O)n(C)c3=O)CC2)cc1,"inconclusive: 5.01 µM [inhibitor, partial curve, poor fit]",,
O=C(c1ccc(Cn2cccn2)o1)N1CCC2(CC1)c1ccccc1CC2O (centres undefined),,inactive: -10.6%,
COc1cccc(N2CC(C(=O)N(C)C)NC2=O)c1 (centres undefined),,inactive: 7.57% [at 44.1 µM],
CN1CCc2c(sc3c2C(=O)NC(c2ccc(OC(=O)c4ccc(Cl)cc4)cc2)N3)C1 (centres undefined),"inconclusive: 10 µM [inhibitor, single point]",,
COCCC(=O)Nc1cccnc1OC1CCN(C)C1 (centres undefined),,inactive: -18.7%,
COc1ccc(-c2nn(-c3ccccc3C)cc2CN2CCCC2c2nonc2C)cc1F (centres undefined),"inconclusive: 15.8 µM [inhibitor, single point]",,
CC(=O)N1CCc2cc(Br)cc(S(=O)(=O)CCC(=O)NCCc3ccc(Cl)cc3)c21,"inconclusive: 5.01 µM [inhibitor, partial curve]",,
Cc1ccc(Cn2c(C)c(CNCc3ccc(OC(C)C)cc3)c(C(=O)O)c2C)cc1,"inconclusive: 10 µM [inhibitor, single point]",,
Fc1ccccc1-c1noc2c1CN(Cc1cccn1-c1nccs1)CC2,"inconclusive: 17.8 µM [inhibitor, single point]",,
CC(C)CNC(=O)C(NC(=O)c1ccccc1Cl)C1CCN(C(=O)c2ccccc2F)CC1 (centres undefined),,,inactive
Cn1c(=O)oc2cc(S(=O)(=O)N3CCC(C(=O)N4CCN(c5cccc(Cl)c5)CC4)CC3)ccc21,"inconclusive: 17.8 µM [inhibitor, single point]",,
COc1ccc(-c2cc([C@H]3CN4CC[C@H]3C[C@@H]4CNC(=O)Nc3cccc(C(C)=O)c3)n(C)n2)cc1OC,"inconclusive: 10 µM [inhibitor, single point]",,
CCc1ccccc1Nc1nn2c(=O)c3ccc(C(=O)NCc4ccccc4Cl)cc3nc2s1,active: 11.2 µM,,
COc1ccc(-c2cc(N3CCCC(NC(=O)c4cc(Cl)ccc4F)C3)n[nH]2)cc1 (centres undefined),,,inactive
COc1ccc(Cl)cc1NC(=O)Cn1cc(S(=O)(=O)Cc2cccc(Cl)c2)c2ccccc21,"inconclusive: 17.8 µM [inhibitor, single point]",,

Structure (SMILES),Potency,"activity, negative = inhibition",outcome
O=C(C1CCN(C(=O)N2CC3CC(C2)[C@H]2CCCC(=O)N2C3)CC1)N1CCOCC1 (some centres undefined),,inactive: -9.54%,
CCOc1ccc(NC(=O)Cn2c(CCC(=O)O)ccc2-c2ccc(C)cc2)cc1,"inconclusive: 10 µM [inhibitor, single point]",,
COc1ccc(OC)c(C(C)NCc2cn[nH]c2-c2ccc(F)cc2)c1 (centres undefined),"inconclusive: 5.01 µM [inhibitor, partial curve]",,
COCC(=O)NC1CCC12CCN(C(=O)c1ocnc1C)CC2 (centres undefined),,inactive: -4.19%,
Fc1ccc2c(c1)nc1n2[C@@H](CNC2CCOCC2)COC1,,inactive: -19.2% [at 44.1 µM],
O=C(NCc1ccncc1)C1CN(Cc2cccs2)CC12CCOCC2 (centres undefined),,,inactive
O=C(Cn1cccc1-c1nc(-c2ccccc2)no1)N1CCN(c2ccccc2F)CC1,active: 7.94 µM,,
CCN1CC(Nc2ccc(-c3nc(CCCc4ccccc4)no3)cn2)CC1=O (centres undefined),"inconclusive: 11.2 µM [inhibitor, single point]",,
c1cc(CN2CC(Oc3ccc4c(c3)OCO4)C2)cs1,,inactive: -8.29%,
CCCCN(C)C(=O)Cn1cnc2sc(C)c(S(=O)(=O)N3CCN(c4ccccc4OC)CC3)c2c1=O,"inconclusive: 12.6 µM [inhibitor, single point]",,
COc1ccc(C(=O)N[C@@H]2CCC[C@@H]2C(=O)N2CCN(c3ccc(Cl)cc3)CC2)cc1,"inconclusive: 11.2 µM [inhibitor, partial curve, poor fit]",,
CCN1c2cc(C(=O)Nc3cccc(C(F)(F)F)c3)ccc2C(=O)N2CCCCCC21 (centres undefined),"inconclusive: 11.2 µM [inhibitor, single point]",,
O=C(NC1CCc2ccccc21)C1CCN(C(=O)c2ncn3c2COC(c2ccccc2)C3)CC1 (centres undefined),,,inactive
COc1ccc(NC(=O)c2c(NC(=O)c3cccc(C)c3)sc3c2CCCC3)cc1,"inconclusive: 8.91 µM [inhibitor, single point]",,
Cc1ccc([N+](=O)[O-])cc1S(=O)(=O)N1CCn2cccc2C1c1ccc(F)c(F)c1 (centres undefined),"inconclusive: 11.2 µM [inhibitor, single point]",,
Cc1ccc(C)c(CN2C(=O)c3ccccc3Sc3ccc(C(=O)NCc4ccc5c(c4)OCO5)cc32)c1,active: 8.91 µM,,
CCc1cccc(NC(=O)N2C[C@@H](F)C[C@H]2C(=O)N2CCc3ccccc3C2)c1,,,inactive
O=C1NCc2ccccc2CC12CCCN2Cc1ccc(OC(F)(F)F)cc1 (centres undefined),"inconclusive: 17.8 µM [inhibitor, single point]",,
CN(Cc1cn(-c2ccccc2)nn1)Cc1cc(-c2ccncc2)no1,"inconclusive: 3.98 µM [inhibitor, partial curve]",,
COCCNC(=O)[C@@H]1CCC[C@@H](NCC2CC2)CN(C)C(=O)C1,,inactive: -0.257% [at 44.1 µM],
Cc1ccccc1C(=O)Nc1cccc(C(=O)OCc2cc(=O)n3nc(C4CC4)sc3n2)c1,,,inactive
COc1ccc(-c2cc(-c3ccc4c(c3)C(=O)NC4)cn3cncc23)cc1,"inconclusive: 3.16 µM [inhibitor, single point]",,
